Experimental data reported in PubChem BioAssay AID1345083 (National Center for Advancing Translational Sciences (NCATS), 2018).
In all, about 94,000 compounds went through this assay and about 6,200 (6.6%) were called active. The shares of active, inactive and inconclusive entries below differ from those in the screen. The call rests on the fitted dose curve; in most records, active means well fitted inhibition curve with a large enough effect; inconclusive means small, poorly fitted or top-dose-only effect; inactive means flat fitted curve, though single readings scatter. Where the call is inconclusive, the potency comes from a doubtful curve fit.

Assay: Cytotoxic Profiling in HEK 293 Cell Line of Diverse Libraries Using Quantitative High-Throughput Screening; further: nearly all actives have a fitted effect of over 60% in size
Conditions: HEK 293 viability, ATP luminescence (CellTiter-Glo), 48-72 h; activity change, negative = cytotoxicity: at 115 µM (top of the series) unless noted; series mostly up to 115 µM
Method in brief: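 Read-out: CellTiter-Glo ATP luminescence. Cells: HEK 293, 250 cells/well. Exposure: 48 or 72 hr, 37 degree Celsius.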
On the % scale 0 is the no-effect control and ±100 the full control effect; potency means the concentration at half of the fitted maximal effect; tags describe the fitted curve by direction and shape.

Row | SMILES | Potency | activity change, negative = cytotoxicity | outcome
1 | Cc1noc(-c2ccc3c(c2)OCO3)c1C(=O)NCCc1cccc(Cl)c1 | inconclusive: 63.1 µM [inhibitor, partial curve, poor fit] | – | –
2 | COc1cccc(CN2CC[C@H]3C(=O)NCCCCCCN(Cc4ccncc4)[C@@H]3C2)n1 | – | inactive: -10.8% | –
3 | N#Cc1ccccc1CN1CCCCC1c1nc(CCOCC2CCCC2)no1 (stereo unspecified) | inconclusive: 79.4 µM [inhibitor, partial curve, poor fit] | – | –
4 | CC1CCN(C(=O)CCC[C@H]2NC[C@@H]3C[C@H]2CN(Cc2ccccc2)C3)CC1 | – | inactive: -1.55% | –
5 | Cc1ccc(CNC(=O)c2cc3c(N(C)Cc4ccccc4)nc(C)cn3n2)cc1 | inconclusive: 79.4 µM [inhibitor, single point] | – | –
6 | CCCn1ccc2sc(C)c(C(=O)NCCC3=CCCCC3)c2c1=O | inconclusive: 44.7 µM [inhibitor, partial curve] | – | –
7 | CCc1noc(-c2cn(C3CCN(C(=O)c4ccc(N(C)C)cc4)CC3)nn2)n1 | – | inactive: -21.4% | –
8 | COc1ccc2nc(C[C@@H]3C[C@@H](C(C)C)[C@H](CNC(=O)CC(C)(C)CC(=O)O)C=C3C)[nH]c2c1 | – | inactive: -19.4% | –
9 | CC(C)CCNC(=O)N1CCC2(CC1)CC(N(Cc1ccc(F)cc1)C1CC1)CCO2 (stereo unspecified) | inconclusive: 50.1 µM [inhibitor, partial curve, poor fit] | – | –
10 | O=C(Cc1ccc(Cl)cc1)N1CCN(C(=O)c2nnn3c2COC(c2ccccc2)C3)CC1 (stereo unspecified) | inconclusive: 50.1 µM [inhibitor, partial curve, poor fit] | – | –
11 | CCc1cccc(NC(=O)Cn2c(N3CCOCC3)nc(C)cc2=O)c1 | inconclusive: 70.8 µM [inhibitor, partial curve, poor fit] | – | –
12 | CCCS(=O)(=O)N1CCc2n[nH]c(=O)n2CC1 | – | inactive: 0.603% | –
13 | COc1ccc(-c2noc(CCCC(=O)N3CCCn4nc(-c5ccc(F)cc5)cc4C3)n2)cc1OC | active: 31.6 µM | – | –
14 | Cn1ccc2c(C(=O)NCCc3cnc[nH]3)nc(-c3cccc(CO)c3)cc21 | inconclusive: 112 µM [inhibitor, partial curve, poor fit] | – | –
15 | COc1ccc(CC(=O)N2CCCN(S(C)(=O)=O)c3ccccc32)cc1OC | – | inactive: -3.55% | –
16 | O=C1CC2(CCN(C(=O)C3CCCN(C(=O)Cc4ccc(F)cc4)C3)CC2)Oc2ccccc2N1 (stereo unspecified) | inconclusive: 50.1 µM [inhibitor, partial curve, poor fit] | – | –
17 | CC(C(=O)Nc1nccs1)N1CCN(c2nccnc2C#N)CC1 (stereo unspecified) | – | inactive: -5.89% | –
18 | O=C(NCc1cccc(C(F)(F)F)c1)[C@@H]1CCCN1c1nccc(Nc2ccccc2Cl)n1 | inconclusive: 31.6 µM [inhibitor, partial curve, poor fit] | – | –
19 | COc1ccc2c(c1)c(CN1C[C@@H](CO)[C@H](c3nc(C)no3)C1)cn2C | inconclusive: 20 µM [inhibitor, partial curve, poor fit] | – | –
20 | C#CCNC(=O)c1cn2cc(-c3ccc(OC)cc3)sc2n1 | – | inactive: -16.8% [at 172 µM] | –
21 | O=C(O)CCn1ncc2cc(OCC3CCN(C(=O)Cc4ccccc4)CC3)ccc21 | – | inactive: -11.7% [at 172 µM] | –

Row | SMILES | Potency | activity change, negative = cytotoxicity | outcome
22 | CCc1noc(CN(C(=O)c2oc3ccc(C)cc3c2C)C(C)C)n1 | inconclusive: 79.4 µM [inhibitor, partial curve, poor fit] | – | –
23 | CCN(CC)Cc1nc(C2(O)CCN(C3CCC(F)(F)CC3)CC2)cs1 | inconclusive: 112 µM [inhibitor, partial curve, poor fit] | – | –
24 | CC(=O)NC[C@@H]1C=C(C)[C@H](Cc2nc3ccc(F)cc3[nH]2)C[C@H]1C(C)C | active: 44.7 µM | – | –
25 | CC(C)(C)C(=O)N1CCC(c2nn(-c3ccccc3)c(=O)[nH]2)CC1 | inconclusive: 63.1 µM [inhibitor, full curve] | – | –
26 | Cc1ccsc1C(=O)NCCn1c(C)cnc1C1CCC1 | – | inactive: 5.64% | –
27 | CC1Oc2ccc(NC(=O)Cc3ccc(F)cc3)cc2CN(CCc2ccc(F)cc2)C1=O (stereo unspecified) | inconclusive: 56.2 µM [inhibitor, partial curve, poor fit] | – | –
28 | CCOC(=O)N1CCC(c2noc3nc(C4CC4)cc(C(=O)NC)c23)CC1 | inconclusive: 100 µM [inhibitor, single point] | – | –
29 | COc1ccc(C(=O)Nc2ccc(-c3noc([C@@H]4CCCN4Cc4ccncc4)n3)cn2)cc1 | inconclusive: 44.7 µM [inhibitor, partial curve, poor fit] | – | –
30 | COc1ccc(NC(=O)C2COC3(CCN(C(=O)c4ccco4)CC3)N2C(=O)c2ccccc2)cc1 (stereo unspecified) | inconclusive: 89.1 µM [inhibitor, single point] | – | –
31 | CC(NC(=O)c1cc2n(n1)CC(c1ccc3c(c1)OCO3)OC2)c1ccccc1 (stereo unspecified) | inconclusive: 89.1 µM [inhibitor, single point] | – | –
32 | Cc1ccc(OCC(=O)NCCC2CCN(C(=O)Nc3ccccc3F)CC2)cc1 | – | inactive: -0.885% | –
33 | CN1C(=O)CO[C@H](c2ccc(NC(=O)c3cccc(C#N)c3)cc2)[C@H]1CO | – | inactive: -10.2% [at 172 µM] | –
34 | COC(=O)c1ccc2nc(C[C@@H]3C[C@@H](C(C)C)[C@H](CNC(=O)[C@@H]4CCCC[C@@H]4C(=O)O)C=C3C)[nH]c2c1 | inconclusive: 79.4 µM [inhibitor, partial curve] | – | –
35 | CN(C)C[C@@H]1CN(c2ncccn2)C[C@H]1NC(=O)c1cccc(Cl)c1 | – | inactive: -2.08% | –
36 | COCc1cc(C[C@@H]2C[C@H](NS(C)(=O)=O)C2(C)C)no1 | – | inactive: 2.65% [at 172 µM] | –
37 | NC(=O)C1CCN(c2cc(-c3noc([C@@H]4CCCN4Cc4ccc(Cl)cc4)n3)ccn2)CC1 | inconclusive: 35.5 µM [inhibitor, partial curve, poor fit] | – | –
38 | Cc1nn(-c2ccccc2)c(Oc2ccc(F)cc2F)c1CCC(=O)N(C)C(C)C | inconclusive: 39.8 µM [inhibitor, partial curve, poor fit] | – | –
39 | Cc1nn(-c2ccccc2)c2c1C(C(C)C)N(C1CCN(C(=O)Nc3ccc(Cl)cc3)C1)C2=O (stereo unspecified) | inconclusive: 50.1 µM [inhibitor, partial curve, poor fit] | – | –
40 | O=C(NC1CCCC1)N1CCN(C(=O)c2nc3cccnc3n(Cc3ccccc3)c2=O)CC1 | – | – | inactive
41 | CCn1cc(C(=O)N2CCC(Cn3c(C)cnc3-c3cccnc3)CC2)cn1 | – | inactive: -0.264% | –
